The campaign covered roughly 220,000 compounds. About 5,700 (2.6%) were called active. The inconclusive results got no clear call from the source; some entries with a clear call stand among them for comparison. Calls come from the whole dose curve; as a rule, active = well fitted inhibition curve with a large enough effect; inconclusive = small, poorly fitted or top-dose-only effect; inactive = no such curve, though single readings can be large or run the other way. Potencies beside an inconclusive call are fits to weak or partial responses and may not hold up.
Each compound was assayed against Lysine-specific demethylase 5B (Homo sapiens) (UniProt Q9UGL1) (assay: Primary screen for KDM5B Histone Demethylases FDH-coupled qHTS). Conditions: FDH-coupled NADH fluorescence (FDH is formaldehyde dehydrogenase); activity change, negative = inhibition: at 57.7 µM (top of the series).
Sequence of UniProt Q9UGL1 (Q9UGL1 whole entry, looked up): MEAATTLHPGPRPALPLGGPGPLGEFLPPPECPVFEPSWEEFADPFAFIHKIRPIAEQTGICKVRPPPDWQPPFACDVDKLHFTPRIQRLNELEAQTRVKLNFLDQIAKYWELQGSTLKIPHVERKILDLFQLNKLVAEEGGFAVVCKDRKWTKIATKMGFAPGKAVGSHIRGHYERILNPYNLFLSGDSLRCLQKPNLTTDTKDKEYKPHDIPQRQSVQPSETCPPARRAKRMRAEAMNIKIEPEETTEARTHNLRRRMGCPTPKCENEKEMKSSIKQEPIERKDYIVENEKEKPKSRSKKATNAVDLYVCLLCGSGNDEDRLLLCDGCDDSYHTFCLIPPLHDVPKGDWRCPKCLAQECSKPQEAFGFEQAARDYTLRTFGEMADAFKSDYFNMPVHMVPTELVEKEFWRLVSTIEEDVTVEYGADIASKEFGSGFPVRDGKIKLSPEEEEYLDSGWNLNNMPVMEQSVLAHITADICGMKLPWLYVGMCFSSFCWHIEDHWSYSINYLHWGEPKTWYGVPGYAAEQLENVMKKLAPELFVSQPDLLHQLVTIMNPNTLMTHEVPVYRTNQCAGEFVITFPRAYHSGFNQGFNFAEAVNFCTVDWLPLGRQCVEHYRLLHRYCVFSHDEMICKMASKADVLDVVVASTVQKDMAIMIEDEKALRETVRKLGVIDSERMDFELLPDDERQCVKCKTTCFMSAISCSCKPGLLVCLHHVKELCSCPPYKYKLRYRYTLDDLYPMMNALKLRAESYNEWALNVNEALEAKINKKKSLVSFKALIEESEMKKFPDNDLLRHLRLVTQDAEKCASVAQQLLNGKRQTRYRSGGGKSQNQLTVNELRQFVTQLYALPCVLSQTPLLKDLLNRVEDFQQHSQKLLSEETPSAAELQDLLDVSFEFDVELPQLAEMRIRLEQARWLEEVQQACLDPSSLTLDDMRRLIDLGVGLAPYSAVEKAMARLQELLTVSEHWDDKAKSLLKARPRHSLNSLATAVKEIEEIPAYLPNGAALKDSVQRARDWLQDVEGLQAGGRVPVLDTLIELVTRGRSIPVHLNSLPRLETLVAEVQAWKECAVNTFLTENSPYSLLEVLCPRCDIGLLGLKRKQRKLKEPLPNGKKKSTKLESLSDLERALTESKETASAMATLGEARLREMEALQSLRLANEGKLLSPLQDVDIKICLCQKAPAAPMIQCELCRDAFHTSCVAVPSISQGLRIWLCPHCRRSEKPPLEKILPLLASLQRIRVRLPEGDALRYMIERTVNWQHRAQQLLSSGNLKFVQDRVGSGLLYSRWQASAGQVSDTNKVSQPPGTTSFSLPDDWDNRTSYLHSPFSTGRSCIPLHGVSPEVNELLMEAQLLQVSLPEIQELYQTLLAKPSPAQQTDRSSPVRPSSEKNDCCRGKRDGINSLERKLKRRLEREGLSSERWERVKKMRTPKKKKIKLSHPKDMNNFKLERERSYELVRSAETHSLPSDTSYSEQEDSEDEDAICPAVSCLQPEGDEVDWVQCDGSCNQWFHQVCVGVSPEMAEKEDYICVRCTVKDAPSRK
Outline: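 KDM5BΔAP (200 nM final) in 50 mM HEPES pH 7.5, 0.01% Tween-20 was preincubated 10 min at RT with compound over a concentration range. Substrate mix (H3K4me3 12.5 µM, α-KG 25 µM, Fe²⁺, ascorbate, NAD⁺, FDH) was added, and NADH fluorescence change over 30 min gave dose-response curves.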
For `CCOc1ccc(CN(CCc2ccc3c(c2)OCO3)Cc2cccc(OC)c2)cc1`, the Potency was inconclusive: 0.708 µM [inhibitor, full curve, poor fit].
For `CNC(=O)NC(=O)COC(=O)c1cn(C)c2ccccc12`, the Potency was “inactive”.
`COc1cc2c(cc1OCc1ccc(Cl)cc1)N(Cc1ccccc1)CC21CCN(C(C)=O)CC1` was tested, and the Potency was inconclusive: 15.8 µM [inhibitor, partial curve, poor fit].
For `CC(C)CN1Cc2ccccc2-n2ccnc2C12CCN(C(=O)c1ccn[nH]1)CC2`, the Potency was “inactive”.
With `CSc1cccc(NC(=O)NC[C@H]2C[C@@H]3CCN2C[C@@H]3CN(C)c2ccccc2)c1` the Potency was “inactive”.
In the case of `Cc1cc(O)c2c(C)c(CC(=O)N3CCN(Cc4ccccc4)CC3)c(=O)oc2c1`, the Potency is reported as “inactive”.
In the case of `CCCCN1CC(C(=O)Nc2ccc(C(=O)Nc3ccc(C#N)c(Cl)c3)cc2)CC1=O` (centres undefined), the Potency is reported as “inactive”.
`COc1cc2c(cc1OCc1ccccc1)NC(=O)C21CCN(Cc2ccccc2)CC1` was tested, and the Potency was inconclusive: 31.6 µM [inhibitor, single point].
For `CCOc1ccccc1C(=O)N1CCC2(CC1)c1nccn1-c1ccccc1CN2C`, the Potency was “inactive”.
For `CCN1C[C@]2(OC(=O)c3ccccc3NC(C)=O)CCC(OC)C34C5C[C@H]6C(OC)[C@]5(O)[C@](O)(C[C@@H]6OC)C(C[C@@H]32)[C@H]14` (some centres undefined), the Potency was inconclusive: 25.1 µM [inhibitor, single point].
`Cc1ccc(C(=O)NC[C@H]2C[C@@H]3CCN2C[C@@H]3c2cc(-c3cccs3)nc(C)n2)cc1` was tested, and the Potency was active: 35.5 µM.
`COc1cc2c(cc1OC1CCCC1)NC(=O)C21CCN(Cc2cccnc2)CC1` was tested, and the Potency was “inactive”.
`COc1nc2ccccc2nc1N1CCN(C)CC1` was tested, and the Potency was inconclusive: 22.4 µM [inhibitor, partial curve, poor fit].
With `COc1ccc2[nH]c(C)c(CCNCC(C)(C)C)c2c1` the Potency was inconclusive: 22.4 µM [inhibitor, partial curve, poor fit].
In the case of `COC(=O)C1=C(N)Oc2n[nH]c(-c3ccccc3)c2C12C(=O)N(C)c1ccccc12` (centres undefined), the Potency is reported as inconclusive: 8.91 µM [inhibitor, full curve, poor fit].
`Cc1cccc2[nH]cc(C3=CCN(C(C)C(=O)NC4CC4)CC3)c12` (centres undefined) was tested, and the Potency was inconclusive: 10 µM [inhibitor, partial curve, poor fit].
`CCN(CC)C(=O)c1ccc2c(c1)C1C=CCC1C(C(=O)O)N2` (centres undefined) was tested, and the Potency was inconclusive: 25.1 µM [inhibitor, partial curve, poor fit].
In the case of `O=C(c1ccc(F)cc1)N1C[C@@H]2C[C@H](C1)c1ccc(-c3cncnc3)c(=O)n1C2`, the Potency is reported as active: 39.8 µM.
With `COc1ccc([S+](=O)([O-])N2CC3(CCN(CC(=O)O)CC3)c3cc(OC)c(OCC4CCCC4)cc32)cc1` the Potency was inconclusive: 20 µM [inhibitor, partial curve].
In the case of `CC(=O)Nc1ccc(-c2ccc(=O)n3c2[C@@H]2C[C@@H](CN(C(=O)c4ccco4)C2)C3)cc1`, the Potency is reported as inconclusive: 35.5 µM [inhibitor, partial curve].
With `CC1CN2CCCC2CN1` (centres undefined) the Potency was inconclusive: 158 µM [inhibitor, partial curve].
`CCOc1ccccc1CN1CCN(c2ccccc2)CC1` was tested, and the Potency was inconclusive: 25.1 µM [inhibitor, partial curve, poor fit].
`CC/C(=N\NC(=O)c1ccccc1)c1c(O)n(Cc2ccccc2)c(=O)[nH]c1=O` was tested, and the Potency was inconclusive: 20 µM [inhibitor, partial curve, poor fit].
With `CC(C(=O)c1ccc(Cl)cc1Cl)n1cncn1` (centres undefined) the Potency was inconclusive: 31.6 µM [inhibitor, single point].
For `COc1ccc(-c2cc([C@H]3CN4CC[C@H]3C[C@@H]4CNC(=O)c3cccs3)nc(C)n2)cc1OC`, the Potency was active: 28.2 µM.
For `O=C(CCN1CCCCC1)Nc1ccc(Cl)cc1C(=O)c1ccccc1`, the Potency was inconclusive: 14.1 µM [inhibitor, partial curve, poor fit].
`Clc1ccc(C2NCc3ccccc3-n3cccc32)cc1` (centres undefined) was tested, and the Potency was “inactive”.
In the case of `O=C1NC2(CCN(Cc3ccccn3)C2)OCc2ccccc21` (centres undefined), the Potency is reported as active: 39.8 µM.
For `O=C(Cc1c[nH]c2ncc(-c3cccnc3)cc12)N1CCN(Cc2ccccc2)CC1`, the Potency was “inactive”.
For `C[N+](C)(C)CC1CC1`, the Potency was “inactive”.
For `CN(CCc1ccccn1)C[C@H]1CN2CC[C@H]1C[C@@H]2CNC(=O)Nc1ccsc1`, the Potency was inconclusive: 56.2 µM [inhibitor, single point].
`CC(C)NC1CCC(C(C)(C)C)CC1` (centres undefined) was tested, and the Potency was inconclusive: 28.2 µM [inhibitor, partial curve, poor fit].
For `Nc1ncccc1CN1CC[C@H]2NCCC[C@]2(C(=O)O)C1`, the Potency was inconclusive: 17.8 µM [inhibitor, partial curve, poor fit].
With `CC(C)(C)NC(=O)NC(=O)CCl` the Potency was “inactive”.
For `COc1cccc(NC(=O)Cn2cc(C(=O)c3ccccc3)c3ccccc32)c1`, the Potency was inconclusive: 39.8 µM [inhibitor, single point].
`COCC1CN(C2CCC2)CC12CCN(Cc1ccncc1)CC2` (centres undefined) was tested, and the Potency was inconclusive: 15.8 µM [inhibitor, partial curve, poor fit].
For `CCOC(=O)N1CCN(C2CCCN(C(=O)Cc3ccc(C)c(C)c3)C2)CC1` (centres undefined), the Potency was inconclusive: 10 µM [inhibitor, partial curve, poor fit].
For `CC(=O)N1C[C@@H]2C[C@H](C1)c1ccc(NC(=O)COc3ccccc3)c(=O)n1C2`, the Potency was inconclusive: 31.6 µM [inhibitor, single point].
`Cc1cccc(Cn2cccc(C(=O)Nc3ccc4c(c3)OCCO4)c2=O)c1` was tested, and the Potency was inconclusive: 44.7 µM [inhibitor, single point].
`COc1nc2ccccc2cc1CN1CCC2(C1)CN(C)C(=O)O2` (centres undefined) was tested, and the Potency was inconclusive: 20 µM [inhibitor, partial curve, poor fit].
In the case of `N[n+]1cn[nH]c1`, the Potency is reported as “inactive”.
In the case of `Nc1ncccc1CN1C[C@H](c2ccc3c(c2)OCO3)[C@@H]2[C@H]1C1CCN2CC1`, the Potency is reported as inconclusive: 22.4 µM [inhibitor, single point].
`Cc1ccc(NC(=O)CN2CCN(C(=O)Cc3c[nH]c4ccccc34)CC2)cc1` was tested, and the Potency was “inactive”.
In the case of `CCCNC(=O)NC(=O)COC(=O)c1cn(C)c2ccccc12`, the Potency is reported as “inactive”.
For `O=C(O)[C@]12CN(Cc3ccncc3)C[C@H]1CN(C1CCOCC1)C2`, the Potency was inconclusive: 25.1 µM [inhibitor, partial curve, poor fit].
With `COc1cc(C2SCC(=O)Nc3c2c(C)nn3-c2ccc(C)cc2)ccc1O` (centres undefined) the Potency was “inactive”.
In the case of `CCCNC(=O)OC[C@H]1C[C@@H]2CCN1C[C@@H]2c1cc(-c2ccccc2OC)nn1C`, the Potency is reported as “inactive”.
In the case of `Cc1ccccc1-c1ccc2n(c1=O)C[C@H]1C[C@@H]2CN(C(=O)c2ccc(F)cc2)C1`, the Potency is reported as active: 35.5 µM.
With `FC(F)(F)CN1C2CCC1CN(c1nccs1)C2` the Potency was inconclusive: 56.2 µM [inhibitor, partial curve].
`COc1ccc(S(=O)(=O)NC[C@H]2C[C@@H]3CCN2C[C@@H]3CN2CCOCC2)cc1` was tested, and the Potency was “inactive”.
`CCNC(=O)NC[C@H]1C[C@@H]2CCN1C[C@@H]2c1cc(-c2ccc(N(C)C)cc2)nc(C)n1` was tested, and the Potency was inconclusive: 31.6 µM [inhibitor, partial curve, poor fit].
With `Cc1cc(C)c(NC(=O)c2cn(Cc3ccccc3)nn2)c(C)c1` the Potency was “inactive”.
`CCCS(=O)(=O)Nc1ccc(=O)n2c1[C@@H]1C[C@@H](CN(C(=O)COc3ccccc3)C1)C2` was tested, and the Potency was active: 31.6 µM.
`Nc1nc(CN2CCN(C(=O)COc3cccc(F)c3)CC2)nc2ccccc12` was tested, and the Potency was “inactive”.
In the case of `Cc1cccc(CNCCc2c[nH]c3ccccc23)c1`, the Potency is reported as inconclusive: 39.8 µM [inhibitor, single point].
For `Cn1nc(-c2ccc(F)cc2)cc1[C@H]1CN2CC[C@H]1C[C@@H]2CNC(=O)COc1ccccc1`, the Potency was “inactive”.
For `CN(C)Cc1ccccc1-c1ccc2n(c1=O)C[C@H]1C[C@@H]2CN(C(=O)C2CCCCC2)C1`, the Potency was active: 35.5 µM.
With `C=C[C@H]1CN2CC[C@H]1C[C@@H]2CNCc1ccc(OC)cc1` the Potency was inconclusive: 50.1 µM [inhibitor, partial curve, poor fit].
For `CN1CCN(c2ccc(NC=C(C#N)C#N)cc2)CC1`, the Potency was “inactive”.
For `O=C1CC2CCN(CC3CCCC3)CC2CCN1` (centres undefined), the Potency was inconclusive: 100 µM [inhibitor, partial curve].
`O=C1NC2(CCCN(Cc3ccccn3)C2)COc2ccccc21` (centres undefined) was tested, and the Potency was inconclusive: 4.47 µM [inhibitor, full curve, poor fit].
For `COCC(=O)NC[C@H]1C[C@@H]2CCN1C[C@@H]2c1cc(-c2ccc(OC)cc2)nn1C`, the Potency was “inactive”.
`C#C[C@H]1CN2CC[C@H]1C[C@@H]2COC(=O)NCCC` was tested, and the Potency was inconclusive: 7.94 µM [inhibitor, full curve, poor fit].
`COCC1CN(Cc2ccncc2)CC12CCNCC2` (centres undefined) was tested, and the Potency was inconclusive: 31.6 µM [inhibitor, partial curve, poor fit].
In the case of `CCNC(=O)NC[C@H]1C[C@@H]2CCN1C[C@@H]2c1cc(-c2ccc(OC)c(OC)c2)nn1C`, the Potency is reported as “inactive”.
`O=C(COc1cc(Cl)ccc1Cl)Nc1ccc(Cl)cc1C(=O)c1ccccc1` was tested, and the activity change, negative = inhibition was inconclusive: -33.1% [inhibitor].
`CN1CCOC[C@H]2CCN(C(=O)c3ccncc3)C[C@H]21` was tested, and the Potency was inconclusive: 31.6 µM [inhibitor, partial curve, poor fit].
In the case of `Cc1ccc2c(CCN)c(C)[nH]c2c1C`, the Potency is reported as inconclusive: 14.1 µM [inhibitor, partial curve, poor fit].
In the case of `COC[C@H]1CCCN1C[C@H]1CN2CC[C@H]1C[C@@H]2CN`, the Potency is reported as “inactive”.
With `Cc1ccc(CN(CCc2ccccc2)Cc2ccccc2)o1` the Potency was inconclusive: 39.8 µM [inhibitor, single point].
`CC(C)CCN1CCCC2(CC(c3ccccn3)=NO2)C1` (centres undefined) was tested, and the Potency was “inactive”.
For `COc1cc(/C=C(\C)[N+](=O)[O-])cc(Br)c1O`, the Potency was inconclusive: 8.91 µM [inhibitor, full curve, poor fit].
`C#C[C@H]1CN2CC[C@H]1C[C@@H]2CNC(=O)Nc1ccc(Oc2ccccc2)cc1` was tested, and the Potency was inconclusive: 22.4 µM [inhibitor, partial curve, poor fit].
With `CCC(CC)c1cc([C@H]2CN3CC[C@H]2C[C@@H]3CNC(=O)c2cccs2)nc(-c2ccncc2)n1` the Potency was inconclusive: 31.6 µM [inhibitor, single point].
`N#Cc1cccc(-c2ccc(=O)n3c2[C@@H]2C[C@@H](CN(C(=O)Nc4ccccc4)C2)C3)c1` was tested, and the Potency was inconclusive: 31.6 µM [inhibitor, single point].
With `COc1ccc(Cl)cc1N=Cc1c(O)n(C)c(=O)n(C)c1=O` the Potency was inconclusive: 31.6 µM [inhibitor, partial curve, poor fit].
`CSc1nc(N)c2c(n1)OC(N)=C(C#N)C2c1ccccc1F` (centres undefined) was tested, and the Potency was “inactive”.
`Cc1noc(C)c1-c1cnc2[nH]cc(CC(=O)N3CCN(C)CC3)c2c1` was tested, and the Potency was active: 28.2 µM.
For `Cn1cc(C(=O)OCC(=O)Nc2c(F)cccc2F)c2ccccc21`, the Potency was “inactive”.

— PubChem BioAssay AID1347165 (National Center for Advancing Translational Sciences (NCATS), 2019)
Note: nearly all actives have a fitted effect of over 70% in size.
Potency is the fitted concentration of half-maximal effect; tags give direction and shape of the fitted curve.
Throughout, for activity change, negative = inhibition: 0% is about no effect.
